Laboratory results: PubChem BioAssay (NCATS)
The other results are listed elsewhere or left out. These are further read-outs of the screen, such as a control signal, another cell line or another target. No call is given for them. For some of these results: Most of these compounds were active or inconclusive in the main read-out, so they are no random draw. Words in brackets tell the shape of the fitted curve; partial curves, single points and poor fits give uncertain potencies. Where a SMILES comes first, the peptide text is derived from it. [ ]: non-standard residue; d: D form. The star is where a group is joined. Nva = CCC[C@H](N)C(=O)O; Cbz = O=C(OCc1ccccc1)*

What was measured:
[1] = qHTS drug screen for cell cycle checkpoint inhibitors in PARPi-resistant BRCA-mutant ovarian cancer cell lines. (AID 1963452); details: PEO1/OlaR viability, CellTiter-Glo luminescence, 96 h
Procedure, shortened: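 PEO1, PEO4 and PEO1/OlaR ovarian cancer cells, 600 per well, exposed 96 h at 37C to a dilution series. Viability read by CellTiter-Glo luminescence, normalized to DMSO and empty wells; activity summarized as Z-AUC.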

[2] = qHTS for identification of novel therapeutic agents for treatment of microphthalmiaassociated transcription factor (MiT) renal cell carcinoma (RCC) (AID 1963991); details: CellTiter-Glo, 48 h; for z-score: stronger effect = lower value
Procedure, shortened: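 Viability of three TFE3-fusion renal carcinoma lines measured by CellTiter-Glo after 48 h treatment with each of 1912 compounds at 11 concentrations. Responses scaled between DMSO (100%) and empty wells (0%) before curve fitting.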

[3] = measured here: PEO1 parental viability
[4] = TFE3-RCC viability, measured here: UOK124 cell viability
[5] = TFE3-RCC viability, measured here: UOK145 cell viability
[6] = TFE3-RCC UOK109 viability, measured here: UOK109 Z-AUC
[7] = TFE3-RCC viability, measured here: UOK124 Z-AUC
[8] = TFE3-RCC viability, measured here: UOK145 Z-AUC
Tags tell the direction and shape of the fitted curve.

COc1ccc(-c2nc(N3CCOCC3)c3sc(CN(C)c4ncc(C(=O)NO)cn4)cc3n2)cn1
AC50 [1, 3]: 0.138 µM [falling, full curve] | AC50 ([1]; measured here: PEO4 viability): 0.0616 µM [falling, full curve] | AC50 [2, 4]: 0.0148 µM [falling, full curve] | AC50 [2, 5]: 0.0209 µM [falling, full curve]

O=C1c2ccccc2-[n+]2ccc3c([nH]c4ccccc43)c21
AC50 [1, 3]: 0.692 µM [falling, full curve] | AC50 ([1]; measured here: PEO4 viability): 0.245 µM [falling, full curve] | AC50 [2, 4]: 0.935 µM [falling, full curve] | AC50 [2, 5]: 2.09 µM [falling, full curve]

Cc1ccc(C(=O)N(CCCN)[C@@H](c2nc3cc(Cl)ccc3c(=O)n2Cc2ccccc2)C(C)C)cc1
AC50 [1, 3]: 0.0087 µM [falling, full curve] | AC50 ([1]; measured here: PEO4 viability): 0.0062 µM [falling, full curve] | AC50 [2, 4]: 16.6 µM [falling, partial curve] | AC50 [2, 5]: 0.0662 µM [falling, partial curve, poor fit]

CC(C)c1nn(-c2c(Cl)cccc2Cl)c2nc(Cc3ccc(OCCO)cc3)[nH]c(=O)c12
AC50 [1, 3]: 0.0174 µM [falling, full curve] | AC50 ([1]; measured here: PEO4 viability): 0.0776 µM [falling, full curve] | AC50 [2, 4]: 0.0743 µM [falling, full curve] | AC50 [2, 5]: 0.0743 µM [falling, full curve]

CCC(=O)N1CCN(c2ccc(-n3c(=O)ccc4cnc5ccc(-c6cnc7ccccc7c6)cc5c43)cc2C(F)(F)F)CC1
AC50 [1, 3]: 0.213 µM [falling, full curve] | AC50 ([1]; measured here: PEO4 viability): 0.134 µM [falling, full curve] | AC50 [2, 4]: 0.0148 µM [falling, full curve] | AC50 [2, 5]: 0.0166 µM [falling, full curve]

CCC[C@@H](C=O)NC(=O)[C@H](CC(C)C)NC(=O)[C@H](CC(C)C)NC(=O)OCc1ccccc1 (Cbz-Leu-Leu-[Nva]-aldehyde)
AC50 [1, 3]: 27.5 µM [rising, single point] | AC50 ([1]; measured here: PEO4 viability): 0.49 µM [falling, full curve] | AC50 [2, 4]: 1.48 µM [falling, full curve] | AC50 [2, 5]: 1.87 µM [falling, full curve]

CC[C@@H]1C(=O)N(C)c2cnc(Nc3ccc(C(=O)NC4CCC(N5CCN(CC6CC6)CC5)CC4)cc3OC)nc2N1C(C)C (stereo not given in full)
AC50 [1, 3]: 0.0155 µM [falling, full curve] | AC50 ([1]; measured here: PEO4 viability): 0.0155 µM [falling, full curve] | AC50 [2, 4]: 1.18 µM [falling, full curve] | AC50 [2, 5]: 2.64 µM [falling, partial curve]

COC(=O)Nc1nc2ccc(C(=O)c3ccc(F)cc3)cc2[nH]1
AC50 [1, 3]: 0.123 µM [falling, full curve] | AC50 ([1]; measured here: PEO4 viability): 0.123 µM [falling, full curve] | AC50 [2, 4]: 0.526 µM [falling, full curve] | AC50 [2, 5]: 0.418 µM [falling, full curve]

COc1ccc(S(=O)(=O)Nc2cccnc2Nc2ccc(O)cc2)cc1
AC50 [1, 3]: 0.616 µM [falling, full curve] | AC50 ([1]; measured here: PEO4 viability): 1.23 µM [falling, full curve] | AC50 [2, 4]: 0.187 µM [falling, full curve] | AC50 [2, 5]: 0.0418 µM [falling, full curve]

Cc1c(NC(=O)OC[C@@H]2COCCN2)cn2ncnc(Nc3ccc4c(cnn4Cc4cccc(F)c4)c3)c12
AC50 [1, 3]: 8.71 µM [falling, partial curve, poor fit] | AC50 ([1]; measured here: PEO4 viability): 2.19 µM [falling, partial curve] | AC50 [2, 4]: 20.9 µM [falling, partial curve] | AC50 [2, 5]: 5.26 µM [falling, partial curve]

C=CC(=O)Nc1ccc2ncnc(Nc3ccc(OCc4cccc(F)c4)c(Cl)c3)c2c1
AC50 [1, 3]: 4.9 µM [falling, full curve] | AC50 ([1]; measured here: PEO4 viability): 3.47 µM [falling, full curve] | AC50 [2, 4]: 1.48 µM [falling, full curve] | AC50 [2, 5]: 1.32 µM [falling, partial curve]

COc1ccc(C=Cc2cc(OC)c(OC)c(OC)c2)cc1NC(=O)[C@H](N)CO
AC50 [1, 3]: 0.0549 µM [falling, full curve] | AC50 ([1]; measured here: PEO4 viability): 0.049 µM [falling, full curve] | AC50 [2, 4]: 0.00332 µM [falling, full curve] | AC50 [2, 5]: 0.00526 µM [falling, full curve]

COc1ccc(Nc2cc(-c3cnc(N)nc3)nc(N3CCOCC3)n2)cn1
AC50 [1, 3]: 1.95 µM [falling, full curve] | AC50 ([1]; measured here: PEO4 viability): 12.3 µM [falling, partial curve] | AC50 [2, 4]: 7.43 µM [falling, full curve] | AC50 [2, 5]: 2.35 µM [falling, full curve]

Cn1c2ccccc2c2c3c(c4c5ccccc5n(CCC#N)c4c21)CNC3=O
AC50 [1, 3]: 9.77 µM [falling, partial curve] | AC50 ([1]; measured here: PEO4 viability): 5.49 µM [falling, full curve] | AC50 [2, 4]: 11.8 µM [falling, partial curve] | AC50 [2, 5]: 5.9 µM [falling, partial curve]

CCOc1ccc(Nc2nc(-c3c(C)nc4ccccn34)cs2)cc1
AC50 [1, 3]: 0.0549 µM [falling, full curve, poor fit] | AC50 ([1]; measured here: PEO4 viability): 7.76 µM [falling, partial curve] | AC50 [2, 4]: 0.00935 µM [falling, full curve] | AC50 [2, 5]: 0.00235 µM [falling, full curve, poor fit]

Cc1cc(Nc2ncc3c(n2)N(C)C(=O)N(c2cc(NC(=O)c4cccc(C(F)(F)F)c4)ccc2C)C3)n(C)n1
AC50 [1, 3]: 0.195 µM [falling, full curve] | AC50 ([1]; measured here: PEO4 viability): 2.75 µM [falling, partial curve] | AC50 [2, 4]: 0.526 µM [falling, full curve] | AC50 [2, 5]: 0.662 µM [falling, full curve]

C#CCC(Cc1cnc2nc(N)nc(N)c2n1)c1ccc(C(=O)N[C@@H](CCC(=O)O)C(=O)O)cc1 (stereo not given in full)
AC50 [1, 3]: 0.0069 µM [falling, full curve] | AC50 ([1]; measured here: PEO4 viability): 0.0069 µM [falling, full curve] | AC50 [2, 4]: 0.0526 µM [falling, full curve] | AC50 [2, 5]: 0.0418 µM [falling, full curve]

N#CNC(=NCCCCCCOc1ccc(Cl)cc1)Nc1ccncc1
AC50 [1, 3]: 0.0069 µM [falling, full curve] | AC50 ([1]; measured here: PEO4 viability): 0.0069 µM [falling, full curve] | AC50 [2, 4]: 0.0148 µM [falling, full curve] | AC50 [2, 5]: 0.0132 µM [falling, full curve]

Clc1ccc(COC(Cn2ccnc2)c2ccc(Cl)cc2Cl)cc1 (stereo not given)
AC50 [1, 3]: 13.8 µM [falling, partial curve] | AC50 ([1]; measured here: PEO4 viability): 19.5 µM [falling, partial curve] | z-score [2, 6]: -0.118 | z-score [2, 7]: 0.178 | AC50 [2, 4]: 37.2 µM [falling, single point] | z-score [2, 8]: -0.0366

Nc1nc(=O)n([C@H]2C[C@H](O)[C@@H](CO)O2)cc1F
AC50 [1, 3]: 0.155 µM [falling, full curve] | AC50 ([1]; measured here: PEO4 viability): 1.74 µM [falling, partial curve] | z-score [2, 6]: 0.154 | z-score [2, 7]: -2.53 | z-score [2, 8]: -0.675 | AC50 [2, 5]: 0.526 µM [falling, full curve]

Cc1cn(-c2cc(NC(=O)c3ccc(C)c(Nc4nccc(-c5cccnc5)n4)c3)cc(C(F)(F)F)c2)cn1
AC50 [1, 3]: 15.5 µM [falling, single point] | AC50 ([1]; measured here: PEO4 viability): 7.76 µM [falling, partial curve] | z-score [2, 6]: -0.0264 | z-score [2, 7]: -1.01 | AC50 [2, 4]: 7.43 µM [falling, partial curve] | z-score [2, 8]: -0.445

Cc1cc([C@@H](C)Nc2ccccc2C(=O)O)c2nc(N3CCOCC3)cc(=O)n2c1
AC50 [1, 3]: 13.8 µM [falling, single point] | AC50 ([1]; measured here: PEO4 viability): 11 µM [falling, partial curve] | z-score [2, 6]: -1.09 | z-score [2, 7]: -1.98 | z-score [2, 8]: -1.57 | AC50 [2, 5]: 12.1 µM [falling, partial curve]

COc1cc(F)c(F)c(Nc2ccc(I)cc2F)c1NS(=O)(=O)C1(C[C@H](O)CO)CC1
AC50 [1, 3]: 0.871 µM [falling, full curve] | AC50 ([1]; measured here: PEO4 viability): 7.76 µM [falling, partial curve] | z-score [2, 6]: 0.402 | z-score [2, 7]: 0.202 | z-score [2, 8]: 0.88

CCOc1ccn(-c2ccc(F)cc2)c(=O)c1C(=O)Nc1ccc(Oc2ccnc(N)c2Cl)c(F)c1
AC50 [1, 3]: 6.16 µM [falling, partial curve, poor fit] | AC50 ([1]; measured here: PEO4 viability): 11 µM [falling, partial curve] | z-score [2, 6]: 0.0574 | z-score [2, 7]: -0.0105 | z-score [2, 8]: 0.582 | AC50 [2, 5]: 26.4 µM [falling, single point]

CN1c2ccccc2C(=O)N2CCc3c([nH]c4ccccc34)C21 (stereo not given)
AC50 [1, 3]: 1.23 µM [falling, full curve] | AC50 ([1]; measured here: PEO4 viability): 1.23 µM [falling, full curve] | z-score [2, 6]: 1.03 | z-score [2, 7]: 0.602 | z-score [2, 8]: 0.594

COc1ccc2c(Oc3ccc(NC(=O)c4c(C)n(CC(C)(C)O)n(-c5ccccc5)c4=O)nc3)ccnc2c1
AC50 [1, 3]: 21.9 µM [falling, single point] | AC50 ([1]; measured here: PEO4 viability): 6.16 µM [falling, partial curve, poor fit] | z-score [2, 6]: -0.161 | z-score [2, 7]: -1.3 | z-score [2, 8]: -0.865 | AC50 [2, 5]: 33.2 µM [falling, single point]

O=C(Nc1cccc(C(F)(F)F)c1)Nc1cc(S(=O)(=O)NC2CC2)ccc1-c1ccsc1
AC50 [1, 3]: 27.5 µM [falling, single point] | AC50 ([1]; measured here: PEO4 viability): 15.5 µM [falling, single point] | z-score [2, 6]: 0.711 | z-score [2, 7]: 0.212 | AC50 [2, 4]: 37.2 µM [falling, single point] | z-score [2, 8]: 0.712

CCc1nc(-c2cccc(C)c2)c(-c2ccnc(NC(=O)c3ccccc3)c2)s1
AC50 [1, 3]: 13.8 µM [falling, single point] | AC50 ([1]; measured here: PEO4 viability): 24.5 µM [falling, single point] | z-score [2, 6]: -0.359 | z-score [2, 7]: 0.262 | z-score [2, 8]: -0.0097 | AC50 [2, 5]: 20.9 µM [falling, single point]
